Reference: PubChem BioAssay AID1460 (National Center for Advancing Translational Sciences (NCATS), 2008)
Values joined by “and” are separate entries in the source; they are usually repeats but may differ in a detail not shown here. Equal values may be shown once. The campaign covered roughly 270,000 compounds. About 5,800 (2.1%) were called active. Inconclusive results, whose numbers are uncertain, are shown with a selection of clear calls. The call rests on the fitted dose curve; in most records, active means well fitted inhibition curve with a large enough effect; inconclusive means small, poorly fitted or top-dose-only effect; inactive means flat fitted curve, though single readings scatter. Where the call is inconclusive, the potency comes from a doubtful curve fit.

biological target: Microtubule-associated protein tau (Homo sapiens) (UniProt P10636); assay: qHTS for Inhibitors of Tau Fibril Formation, Thioflavin T Binding; settings: recombinant tau K18 P301L (four-repeat tau fragment), heparin-induced fibrillization, ThT fluorescence; series mostly up to 57.4 µM; further: nearly all actives have a fitted effect of over 55% in size
Outline: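 K18 P301L tau (15 uM + 0.24 uM Alexa 594-tagged), heparin 20 uM, NaOAc pH 7, 6 h 37 C; ThT 30 uM, 1 h RT, ex 450/em 510 nm.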
Potency means the concentration at half of the fitted maximal effect; tags describe the fitted curve by direction and shape.

Chain of UniProt P10636 (P10636 whole entry, looked up, the tested form may be a part): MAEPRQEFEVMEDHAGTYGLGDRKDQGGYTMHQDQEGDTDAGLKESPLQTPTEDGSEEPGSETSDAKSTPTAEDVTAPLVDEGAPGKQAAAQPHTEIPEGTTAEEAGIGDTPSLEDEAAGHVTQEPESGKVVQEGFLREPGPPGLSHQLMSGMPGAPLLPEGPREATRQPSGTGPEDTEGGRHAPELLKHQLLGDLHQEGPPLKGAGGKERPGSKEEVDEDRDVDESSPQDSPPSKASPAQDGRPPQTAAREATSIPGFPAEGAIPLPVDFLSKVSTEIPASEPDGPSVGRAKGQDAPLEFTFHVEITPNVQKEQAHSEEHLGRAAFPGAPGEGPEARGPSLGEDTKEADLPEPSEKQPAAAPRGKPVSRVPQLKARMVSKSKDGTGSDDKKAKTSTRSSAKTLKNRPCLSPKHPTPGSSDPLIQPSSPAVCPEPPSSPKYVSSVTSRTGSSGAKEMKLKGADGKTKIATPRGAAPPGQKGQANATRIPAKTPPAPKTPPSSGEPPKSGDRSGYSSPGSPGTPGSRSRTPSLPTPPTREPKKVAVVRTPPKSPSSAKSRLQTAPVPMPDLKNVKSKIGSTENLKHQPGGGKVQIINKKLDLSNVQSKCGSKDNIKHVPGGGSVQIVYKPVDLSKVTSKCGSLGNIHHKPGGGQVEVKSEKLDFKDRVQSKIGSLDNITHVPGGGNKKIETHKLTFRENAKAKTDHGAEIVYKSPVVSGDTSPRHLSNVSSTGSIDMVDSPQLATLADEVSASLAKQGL

Structure (SMILES)	Potency
CCN(CC)c1ccc(C=Nc2ccccc2)c(O)c1	inconclusive: 25.1 µM [inhibitor, partial curve]
CN(C)[C@@H]1C(=O)C(C(N)=O)=C(O)[C@@]2(O)C(=O)C3=C(O)c4c(O)ccc(Cl)c4[C@@H](O)[C@H]3C[C@@H]12	inconclusive: 15.8 µM [inhibitor, partial curve]
COc1ccccc1N1C(=O)S/C(=C\c2cc(C)n(C)c2C)C1=O	inactive
NC(=O)c1ccsc1NC(=O)c1ccc2c(c1)CCCC2	inconclusive: 3.16 µM [inhibitor, partial curve]
COc1ccc(CCCc2nnc(SCC(=O)Nc3ccc(OC)cc3)o2)cc1	inconclusive: 2.51 µM [inhibitor, full curve] and inconclusive: 3.98 µM [inhibitor, partial curve]
S=C(c1ccc(-c2ccc(Cl)cc2)o1)N1CCCCC1	inconclusive: 15.8 µM [inhibitor, partial curve]
COc1ccc(-n2nnnc2S(=O)(=O)CC(=O)N2CCCCC2)cc1	inconclusive: 22.4 µM [inhibitor, partial curve]
COc1ccc(C(c2c(C)[nH]n(-c3ccccc3)c2=O)c2c(C)[nH]n(-c3ccccc3)c2=O)cc1OC	inconclusive: 10 µM [inhibitor, partial curve]
COc1ccc(-c2oc(NC(C)=O)c(C#N)c2-c2ccc(OC)cc2)cc1	inconclusive: 39.8 µM [inhibitor, partial curve]
Cn1cc(S(=O)(=O)c2cccc(Cl)c2)c(=O)c2cc(F)c(N3CCN(c4ccccc4)CC3)cc21	inactive
O=CC1=C(N2CCOCC2)/C(=C/c2ccc(Cl)cc2)CC1	inconclusive: 31.6 µM [inhibitor, partial curve]
Cn1cccc1CC(=O)N/N=C/c1ccco1	inconclusive: 28.2 µM [inhibitor, partial curve]
CCOC(=O)COn1c(=O)c(-c2cccs2)[n+]([O-])c2ccccc21	inactive
Cc1ccc(C(=O)OC2=CC(=O)CC(C)(C)C2)cc1	inconclusive: 4.47 µM [inhibitor, partial curve]
CC(C1CC2CCC1C2)n1c(-c2ccco2)n[nH]c1=S (stereo not drawn)	inactive
CSc1ccccc1C(=O)NCCSc1ccccc1	inactive
O=C(NCCc1c[nH]c2ccccc12)c1cccc(S(=O)(=O)Nc2ccccc2Cl)c1	inconclusive: 14.1 µM [inhibitor, partial curve]
O=C(Nc1nc2ccc(Oc3ccccc3)cc2s1)c1cc([N+](=O)[O-])ccc1N1CCOCC1	inconclusive: 10 µM [inhibitor, partial curve]
